Reference: PubChem BioAssay AID1259400 (National Center for Advancing Translational Sciences (NCATS), 2018)
Hit rate of the full screen: of about 350,000 compounds, about 2,100 (0.6%) were called active. Inconclusive results, whose numbers are uncertain, are shown with a selection of clear calls.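 The calls were made as follows: active = activity change of -60% or lower, but not beyond a set lower limit; inconclusive = change between -60% and -40%, or beyond the set limit; inactive = change above -40%.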

Target: Relaxin receptor 1 (Homo sapiens) (UniProt Q9HBX9)
Assay: qHTS Assay for Antagonists of the Relaxin Receptor RXFP1
Conditions: HEK293-RXFP1, relaxin-stimulated cAMP HTRF, 30 min; at 57.5 µM; stronger effect = lower value
% is scaled to controls: 0 for no effect and ±100 for the full control effect.

Chain of UniProt Q9HBX9 (Q9HBX9 whole entry, looked up): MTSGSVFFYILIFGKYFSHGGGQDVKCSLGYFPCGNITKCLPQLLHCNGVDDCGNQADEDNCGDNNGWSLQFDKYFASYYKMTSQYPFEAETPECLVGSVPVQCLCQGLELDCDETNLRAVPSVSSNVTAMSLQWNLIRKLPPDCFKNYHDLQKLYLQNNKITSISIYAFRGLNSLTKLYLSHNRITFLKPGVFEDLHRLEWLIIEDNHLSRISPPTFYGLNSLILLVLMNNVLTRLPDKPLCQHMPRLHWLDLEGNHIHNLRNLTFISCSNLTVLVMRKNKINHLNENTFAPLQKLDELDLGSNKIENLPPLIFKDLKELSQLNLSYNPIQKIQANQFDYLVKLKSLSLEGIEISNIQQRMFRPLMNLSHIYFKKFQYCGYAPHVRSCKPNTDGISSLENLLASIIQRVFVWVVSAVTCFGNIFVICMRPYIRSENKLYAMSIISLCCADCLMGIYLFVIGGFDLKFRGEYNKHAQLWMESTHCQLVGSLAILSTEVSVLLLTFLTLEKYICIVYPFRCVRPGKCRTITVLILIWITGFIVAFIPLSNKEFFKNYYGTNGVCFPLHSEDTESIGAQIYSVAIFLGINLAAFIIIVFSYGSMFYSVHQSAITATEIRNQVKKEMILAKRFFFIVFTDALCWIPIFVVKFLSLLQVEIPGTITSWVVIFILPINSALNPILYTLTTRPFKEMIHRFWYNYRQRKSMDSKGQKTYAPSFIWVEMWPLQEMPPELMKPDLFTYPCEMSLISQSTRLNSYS

Cc1cc(S(=O)(=O)Nc2ccc(C(=O)NCC3(N4CCCCC4)CCCCC3)cc2)ccc1F was tested. Which activity change, negative = inhibition did it give?
The activity change, negative = inhibition was active: -76.8%.

For CCOc1cc2[nH]c(=S)n(CCOC)c(=O)c2cc1OCC, which activity change, negative = inhibition is on record?
Its activity change, negative = inhibition is inconclusive: -50.4%.

How did the activity change, negative = inhibition turn out when CS(=O)(=O)c1cc([N+](=O)[O-])c(Sc2nc3ccccc3[nH]2)c([N+](=O)[O-])c1 was run?
The activity change, negative = inhibition was inconclusive: -59.1%.

Which activity change, negative = inhibition does the source give for Cc1cc(C)n(-c2nc(NCCN(C)C)c3c4c(sc3n2)CCCC4)n1 here?
Its activity change, negative = inhibition is inconclusive: -59.4%.

With O=c1c2c3nc4ccccc4nc3n(Cc3ccccc3)c2ncn1Cc1ccco1 as the compound, how does the activity change, negative = inhibition read?
Its activity change, negative = inhibition is inconclusive: -59%.

For CCCOc1ccc(/C=N/Nc2ccc(C(=O)O)cc2)c(OCCC)c1, which activity change, negative = inhibition is on record?
Its activity change, negative = inhibition is inconclusive: -52.7%.

How did the activity change, negative = inhibition turn out when COc1cccc(Nc2nc(NCC3CCCO3)c3ccccc3n2)c1 (configuration not stated) was run?
Its activity change, negative = inhibition is inconclusive: -40.2%.

Which activity change, negative = inhibition does the source give for CN(C)c1ccc(C(CNC(=O)c2ccc(C(C)(C)C)cc2)N2CCCC2)cc1 (configuration not stated) here?
The activity change, negative = inhibition was inconclusive: -54.6%.

With O=C(Nc1ccccc1)c1ccc(=O)n(Cc2ccc(F)c(F)c2)c1 as the compound, how does the activity change, negative = inhibition read?
The activity change, negative = inhibition was active: -61.9%.

For Cc1ccc(-n2cc(CNCCCn3cccn3)c(-c3cccc(C)c3)n2)cc1, which activity change, negative = inhibition is on record?
Its activity change, negative = inhibition is active: -63.6%.

How did the activity change, negative = inhibition turn out when Cc1ccc(NS(=O)(=O)c2c(C)nc3sccn3c2=O)cc1 was run?
Its activity change, negative = inhibition is active: -79.5%.

How did the activity change, negative = inhibition turn out when O=C(CCCn1c(=S)[nH]c2cc3c(cc2c1=O)OCO3)NCc1ccco1 was run?
The activity change, negative = inhibition was active: -63.6%.

How did the activity change, negative = inhibition turn out when CCOC(=O)c1ccccc1NC(=O)N(Cc1ccc(CC)cc1)Cc1cn[nH]c1-c1ccc(OC)cc1 was run?
Its activity change, negative = inhibition is inconclusive: -48.2%.

With CCC1CN(C(=O)N2CCC(C(=O)NCCCc3ccccc3)CC2)c2cc(C)ccc2O1 (configuration not stated) as the compound, how does the activity change, negative = inhibition read?
The activity change, negative = inhibition was active: -69.5%.

For CCC(C(=O)NCCCN1CCOCC1)n1c2ccccc2c2nc(=O)cc(C)n21 (configuration not stated), which activity change, negative = inhibition is on record?
Its activity change, negative = inhibition is active: -70.4%.

CCc1ccccc1NC(=O)C1(S(=O)(=O)c2ccc(Cl)cc2)CC1 was tested. Which activity change, negative = inhibition did it give?
Its activity change, negative = inhibition is inactive: -1.65%.

How did the activity change, negative = inhibition turn out when COc1ccc2nc(NC(=O)C3CCCN(S(=O)(=O)c4c(C)noc4C)C3)sc2c1 (configuration not stated) was run?
Its activity change, negative = inhibition is inconclusive: -49.3%.

For COc1cc(/C=C2\SC(=O)N(CC(=O)Nc3cccc(C)c3)C2=O)cc([N+](=O)[O-])c1O, which activity change, negative = inhibition is on record?
Its activity change, negative = inhibition is inconclusive: -42.3%.

For CCC1CN(C(=O)NCc2ccc(C)cc2)c2cc(C)ccc2O1 (configuration not stated), which activity change, negative = inhibition is on record?
Its activity change, negative = inhibition is inconclusive: -54.7%.

N#Cc1ccccc1Oc1ccc(S(=O)(=O)N2CCCCC2)cn1 was tested. Which activity change, negative = inhibition did it give?
Its activity change, negative = inhibition is inactive: -5.97%.

Which activity change, negative = inhibition does the source give for Cn1cc(CN2CCC(n3nccc3NC(=O)c3ccccc3Cl)CC2)c2ccccc21 here?
Its activity change, negative = inhibition is inconclusive: -41%.

With Fc1ccc(-c2nn(-c3ccccc3)cc2CNCc2ccccc2)cc1 as the compound, how does the activity change, negative = inhibition read?
Its activity change, negative = inhibition is inconclusive: -44.2%.

Which activity change, negative = inhibition does the source give for CC(C(=O)Nc1ccccc1)c1ccc(-c2ccccc2)c(F)c1 (configuration not stated) here?
The activity change, negative = inhibition was inconclusive: -48.4%.

For COC(=O)[C@@H]1CC2=CC(=O)CC[C@]2(C)[C@@]23O[C@@H]2C[C@@]2(C)[C@@H](CC[C@@]24CCC(=O)O4)[C@H]13, which activity change, negative = inhibition is on record?
The activity change, negative = inhibition was inactive: 12.2%.

With COc1cc(C(=O)Nc2nnc(S(=O)(=O)N(C)c3ccccc3)s2)cc(OC)c1OC as the compound, how does the activity change, negative = inhibition read?
Its activity change, negative = inhibition is active: -64.5%.

With c1ccc(CNCCC(Cc2ccccc2)c2ccco2)cc1 (configuration not stated) as the compound, how does the activity change, negative = inhibition read?
Its activity change, negative = inhibition is inconclusive: -46.3%.

How did the activity change, negative = inhibition turn out when CCOC(=O)c1c(NC(=O)c2cc(CC)on2)sc(C)c1C was run?
Its activity change, negative = inhibition is inactive: -3.2%.

For CCC(C)(C)n1nnnc1C(c1ccc2ncccc2c1)N1CCN(Cc2ccc3c(c2)OCO3)CC1 (configuration not stated), which activity change, negative = inhibition is on record?
Its activity change, negative = inhibition is inactive: -1.96%.

With O=C(COC(=O)C1CCCC1)Nc1cccc(Cl)c1Cl as the compound, how does the activity change, negative = inhibition read?
The activity change, negative = inhibition was active: -74.4%.

How did the activity change, negative = inhibition turn out when O=C(OCc1nnc(-c2ccccc2)o1)c1ccc(Br)o1 was run?
Its activity change, negative = inhibition is active: -73.2%.

With CN(CCO)c1cc(Sc2nc3ccccc3s2)c2nonc2c1[N+](=O)[O-] as the compound, how does the activity change, negative = inhibition read?
Its activity change, negative = inhibition is inconclusive: -43.7%.

With Cc1ccc(C23CC4CC(CC(C(=O)NC(C)C)(C4)C2)C3)cc1 as the compound, how does the activity change, negative = inhibition read?
The activity change, negative = inhibition was inconclusive: -59.2%.

Which activity change, negative = inhibition does the source give for O=C1c2cccc3c([N+](=O)[O-])ccc(c23)C(=O)N1Cc1cccnc1 here?
Its activity change, negative = inhibition is active: -77.4%.

Which activity change, negative = inhibition does the source give for O=C(CCC(=O)N1CC2CCCN2c2ccccc21)NCc1ccccc1Cl (configuration not stated) here?
Its activity change, negative = inhibition is inactive: -15%.

With Cc1nc(SC(C)C(=O)c2c(N)n(C)c(=O)n(C)c2=O)c2c(C)c(C)sc2n1 (configuration not stated) as the compound, how does the activity change, negative = inhibition read?
The activity change, negative = inhibition was inconclusive: -54.8%.

Cc1cc(NC(=O)c2ccc(NC(=O)CCS(=O)(=O)c3cccs3)cc2)ccc1Br was tested. Which activity change, negative = inhibition did it give?
Its activity change, negative = inhibition is inactive: -16%.

Which activity change, negative = inhibition does the source give for COc1cc2ccccc2cc1C(=O)N(CCN(C)C)c1nc2c(F)cc(F)cc2s1 here?
The activity change, negative = inhibition was inconclusive: -44.6%.

How did the activity change, negative = inhibition turn out when CN(CC(=O)Nc1cccc(F)c1)C(=O)c1ccc2c(c1)CC(c1ccccc1)OC2=O (configuration not stated) was run?
The activity change, negative = inhibition was inconclusive: -56.8%.

O=C(Nc1ccc(C(F)(F)F)cc1)C(Cc1ccccc1)n1cccc1 (configuration not stated) was tested. Which activity change, negative = inhibition did it give?
Its activity change, negative = inhibition is inactive: -31.3%.

For COc1ccc(NC(=O)Nc2nnc(N(CC(C)C)CC(C)C)s2)c(OC)c1, which activity change, negative = inhibition is on record?
The activity change, negative = inhibition was inconclusive: -50.2%.

With O=C(Nc1ccc(Cc2ccncc2)cc1)c1ccc(S(=O)(=O)N2CCCC2)cc1 as the compound, how does the activity change, negative = inhibition read?
Its activity change, negative = inhibition is active: -60.6%.

Which activity change, negative = inhibition does the source give for O=C(N/N=C/c1ccccc1)C(=O)N/N=C/c1ccccc1 here?
Its activity change, negative = inhibition is inactive: -5.66%.
